Assay results: the supplement of paper PMC10037445
The full ranking holds about 2,900 compounds; the median of “NF-kB SEAP reporter activity, fold change vs agonist alone” is about 0.99, and the highest 2% start at about 2.6. This is one part of the list.

Legend:
RAW-Dual [1] = experiment: NF-kB SEAP reporter activity, fold change vs agonist alone; cytotoxicity flag (confluency mask): not cytotoxic; higher = enhanced NF-kB activity
How it was run: (§1)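 RAW-Dual macrophages were seeded in DMEM at 50,000 cells/well in 384-well plates, given 50 nL of library stock by pin tool, and given a PRR agonist 1 h later. Plates were held at 37 °C, 5% CO2 for 20 hours, after which supernatant was read for IRF by QuantiLuc luminescence and for NF-κB by QuantiBlue absorbance at 620 nm. Reporter activity is expressed as fold change over wells that received agonist alone. A well was called cytotoxic when IncuCyte confluency fell below 70% of agonist controls in both mask sets.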

RAW-Dual [2] = experiment: NF-kB SEAP reporter activity, fold change vs agonist alone; higher = enhanced NF-kB activity; conditions: library stock concentration (final ~1000-fold dilution): 10 mM
How it was run: as §1

RAW-Dual [3] = experiment: NF-kB SEAP reporter activity, fold change vs agonist alone; cytotoxicity flag (confluency mask): cytotoxic (confluency <70% of control); higher = enhanced NF-kB activity
How it was run: as §1

[4] = agonist: ODN 1826 (TLR9) 0.5 ug/mL
[5] = agonist: Pam2CSK4 (TLR2/6) 0.1 ug/mL
[6] = agonist: Pam3CSK4 (TLR2/1) 0.1 ug/mL
[7] = cytotoxicity flag (confluency mask): not cytotoxic, agonist: Imiquimod (TLR7) […]
[8] = cytotoxicity flag (confluency mask): not cytotoxic, agonist: MPLA (TLR4) […]
[9] = cytotoxicity flag (confluency mask): cytotoxic (confluency <70% of control), agonist: Imiquimod (TLR7) […]
[10] = cytotoxicity flag (confluency mask): cytotoxic (confluency <70% of control), agonist: MPLA (TLR4) […]

## CC[N+](C)(C)c1cccc(O)c1 (library stock concentration (final ~1000-fold dilution): 10 mM)
RAW-Dual [1]; agonist: LPS (TLR4) 0.1 ug/mL
  NF-kB SEAP reporter activity: 1.54
RAW-Dual [1]; [4]
  NF-kB SEAP reporter activity: 0.931
RAW-Dual [1]; [5]
  NF-kB SEAP reporter activity: 0.952
RAW-Dual [1]; [6]
  NF-kB SEAP reporter activity: 1.08

## CC[N+](C)(C)c1cccc(O)c1
RAW-Dual [2]; [7]
  NF-kB SEAP reporter activity: 0.898
RAW-Dual [2]; [8]
  NF-kB SEAP reporter activity: 1.01

## CC1(C)CC[C@]2(C(=O)O)CC[C@]3(C)C(=CC[C@@H]4[C@@]5(C)C[C@@H](O)[C@H](O)C(C)(C)[C@@H]5CC[C@]43C)[C@@H]2C1 (library stock concentration (final ~1000-fold dilution): 10 mM)
RAW-Dual [1]; agonist: LPS (TLR4) 0.1 ug/mL
  NF-kB SEAP reporter activity: 1.76
RAW-Dual [1]; [4]
  NF-kB SEAP reporter activity: 1.09
RAW-Dual [1]; [5]
  NF-kB SEAP reporter activity: 1.01
RAW-Dual [1]; [6]
  NF-kB SEAP reporter activity: 1.18

## CC1(C)CC[C@]2(C(=O)O)CC[C@]3(C)C(=CC[C@@H]4[C@@]5(C)C[C@@H](O)[C@H](O)C(C)(C)[C@@H]5CC[C@]43C)[C@@H]2C1
RAW-Dual [2]; [7]
  NF-kB SEAP reporter activity: 1.2
RAW-Dual [2]; [8]
  NF-kB SEAP reporter activity: 1.44

## CCN(CCO)CCCOc1ccc2c(Nc3cc(CC(=O)Nc4cccc(F)c4)n[nH]3)ncnc2c1
RAW-Dual [2]; [7]
  NF-kB SEAP reporter activity: 0.819
RAW-Dual [2]; [8]
  NF-kB SEAP reporter activity: 0.925

## CCN(CCO)CCCOc1ccc2c(Nc3cc(CC(=O)Nc4cccc(F)c4)n[nH]3)ncnc2c1 (library stock concentration (final ~1000-fold dilution): 10 mM)
RAW-Dual [1]; agonist: LPS (TLR4) 0.1 ug/mL
  NF-kB SEAP reporter activity: 0.954
RAW-Dual [1]; [4]
  NF-kB SEAP reporter activity: 0.917
RAW-Dual [1]; [5]
  NF-kB SEAP reporter activity: 0.878
RAW-Dual [1]; [6]
  NF-kB SEAP reporter activity: 0.853

## OC(Cn1cncn1)(Cn1cncn1)c1ccc(F)cc1F (library stock concentration (final ~1000-fold dilution): 10 mM)
RAW-Dual [1]; agonist: LPS (TLR4) 0.1 ug/mL
  NF-kB SEAP reporter activity: 1.33
RAW-Dual [1]; [4]
  NF-kB SEAP reporter activity: 0.995
RAW-Dual [1]; [5]
  NF-kB SEAP reporter activity: 1.07
RAW-Dual [1]; [6]
  NF-kB SEAP reporter activity: 1.07

## OC(Cn1cncn1)(Cn1cncn1)c1ccc(F)cc1F
RAW-Dual [2]; [7]
  NF-kB SEAP reporter activity: 0.936
RAW-Dual [2]; [8]
  NF-kB SEAP reporter activity: 0.954

## Cc1ccsc1C(=CCCN1CCCC(C(=O)O)C1)c1sccc1C (configuration not stated) (library stock concentration (final ~1000-fold dilution): 10 mM)
RAW-Dual [1]; agonist: LPS (TLR4) 0.1 ug/mL
  NF-kB SEAP reporter activity: 1.07
RAW-Dual [1]; [4]
  NF-kB SEAP reporter activity: 0.887
RAW-Dual [1]; [5]
  NF-kB SEAP reporter activity: 1.09
RAW-Dual [1]; [6]
  NF-kB SEAP reporter activity: 1.1

## Cc1ccsc1C(=CCCN1CCCC(C(=O)O)C1)c1sccc1C (configuration not stated)
RAW-Dual [2]; [8]
  NF-kB SEAP reporter activity: 1.04

## CC(C)Oc1ccc(-c2c[nH]cc2CN(C)CCN)cc1 (library stock concentration (final ~1000-fold dilution): 10 mM)
RAW-Dual [1]; agonist: LPS (TLR4) 0.1 ug/mL
  NF-kB SEAP reporter activity: 1.08
RAW-Dual [1]; [4]
  NF-kB SEAP reporter activity: 0.258
RAW-Dual [1]; [5]
  NF-kB SEAP reporter activity: 0.578
RAW-Dual [1]; [6]
  NF-kB SEAP reporter activity: 0.592

## CC(C)Oc1ccc(-c2c[nH]cc2CN(C)CCN)cc1
RAW-Dual [2]; [7]
  NF-kB SEAP reporter activity: 1.31
RAW-Dual [2]; [8]
  NF-kB SEAP reporter activity: 1.07

## NS(=O)(=O)c1cc(C2(O)NC(=O)c3ccccc32)ccc1Cl (configuration not stated)
RAW-Dual [2]; [7]
  NF-kB SEAP reporter activity: 1.04
RAW-Dual [2]; [8]
  NF-kB SEAP reporter activity: 1.03

## NS(=O)(=O)c1cc(C2(O)NC(=O)c3ccccc32)ccc1Cl (configuration not stated) (library stock concentration (final ~1000-fold dilution): 10 mM)
RAW-Dual [1]; agonist: LPS (TLR4) 0.1 ug/mL
  NF-kB SEAP reporter activity: 0.972
RAW-Dual [1]; [4]
  NF-kB SEAP reporter activity: 0.954
RAW-Dual [1]; [5]
  NF-kB SEAP reporter activity: 1.12
RAW-Dual [1]; [6]
  NF-kB SEAP reporter activity: 1.07

## O=C(NCc1c(F)cc(F)cc1F)c1cn2c(c(O)c1=O)C(=O)N1C3CCC(C3)OC1C2 (configuration not stated)
RAW-Dual [2]; [9]
  NF-kB SEAP reporter activity: 2.27
RAW-Dual [2]; [10]
  NF-kB SEAP reporter activity: 1.46

## O=C(NCc1c(F)cc(F)cc1F)c1cn2c(c(O)c1=O)C(=O)N1C3CCC(C3)OC1C2 (configuration not stated) (library stock concentration (final ~1000-fold dilution): 10 mM)
RAW-Dual [3]; agonist: LPS (TLR4) 0.1 ug/mL
  NF-kB SEAP reporter activity: 0.84
RAW-Dual [3]; [4]
  NF-kB SEAP reporter activity: 0.276
RAW-Dual [3]; [5]
  NF-kB SEAP reporter activity: 1.02
RAW-Dual [3]; [6]
  NF-kB SEAP reporter activity: 0.61

## CC(C)(C)c1cnc(CSc2cnc(NC(=O)C3CCNCC3)s2)o1
RAW-Dual [2]; [9]
  NF-kB SEAP reporter activity: 0.249
RAW-Dual [2]; [10]
  NF-kB SEAP reporter activity: 0.249

## CC(C)(C)c1cnc(CSc2cnc(NC(=O)C3CCNCC3)s2)o1 (library stock concentration (final ~1000-fold dilution): 10 mM)
RAW-Dual [3]; agonist: LPS (TLR4) 0.1 ug/mL
  NF-kB SEAP reporter activity: 0.28
RAW-Dual [3]; [4]
  NF-kB SEAP reporter activity: 0.28
RAW-Dual [3]; [5]
  NF-kB SEAP reporter activity: 0.101
RAW-Dual [3]; [6]
  NF-kB SEAP reporter activity: 0.191

## COc1cc(Br)c(Nc2nc(-c3c(C)nc4ncccn34)cs2)c(Br)c1
RAW-Dual [2]; [7]
  NF-kB SEAP reporter activity: 1.41
RAW-Dual [2]; [8]
  NF-kB SEAP reporter activity: 2.42

## COc1cc(Br)c(Nc2nc(-c3c(C)nc4ncccn34)cs2)c(Br)c1 (library stock concentration (final ~1000-fold dilution): 10 mM)
RAW-Dual [1]; agonist: LPS (TLR4) 0.1 ug/mL
  NF-kB SEAP reporter activity: 1.97
RAW-Dual [1]; [4]
  NF-kB SEAP reporter activity: 1.99
RAW-Dual [1]; [5]
  NF-kB SEAP reporter activity: 0.309
RAW-Dual [1]; [6]
  NF-kB SEAP reporter activity: 0.927

## CC(C)Oc1ccc(-c2nn(C(C)c3oc4ccc(F)cc4c(=O)c3-c3cccc(F)c3)c3ncnc(N)c23)cc1F (configuration not stated)
RAW-Dual [2]; [7]
  NF-kB SEAP reporter activity: 1.05
RAW-Dual [2]; [8]
  NF-kB SEAP reporter activity: 1.14

## CC(C)Oc1ccc(-c2nn(C(C)c3oc4ccc(F)cc4c(=O)c3-c3cccc(F)c3)c3ncnc(N)c23)cc1F (configuration not stated) (library stock concentration (final ~1000-fold dilution): 10 mM)
RAW-Dual [1]; agonist: LPS (TLR4) 0.1 ug/mL
  NF-kB SEAP reporter activity: 0.919
RAW-Dual [1]; [4]
  NF-kB SEAP reporter activity: 0.522
RAW-Dual [1]; [5]
  NF-kB SEAP reporter activity: 0.308
RAW-Dual [1]; [6]
  NF-kB SEAP reporter activity: 0.479

## CN1C(=O)c2sccc2N(C)c2nc(Nc3ccc(S(N)(=O)=O)cc3)ncc21 (library stock concentration (final ~1000-fold dilution): 10 mM)
RAW-Dual [1]; agonist: LPS (TLR4) 0.1 ug/mL
  NF-kB SEAP reporter activity: 5.75
RAW-Dual [1]; [4]
  NF-kB SEAP reporter activity: 3.02
RAW-Dual [1]; [5]
  NF-kB SEAP reporter activity: 1.22
RAW-Dual [1]; [6]
  NF-kB SEAP reporter activity: 2.56

## CN1C(=O)c2sccc2N(C)c2nc(Nc3ccc(S(N)(=O)=O)cc3)ncc21
RAW-Dual [2]; [7]
  NF-kB SEAP reporter activity: 1.86
RAW-Dual [2]; [8]
  NF-kB SEAP reporter activity: 2.45

## Cl.NCc1c[nH]c(=S)n1C1CCc2c(F)cc(F)cc2C1 (configuration not stated) (library stock concentration (final ~1000-fold dilution): 10 mM)
RAW-Dual [1]; agonist: LPS (TLR4) 0.1 ug/mL
  NF-kB SEAP reporter activity: 0.779
RAW-Dual [1]; [4]
  NF-kB SEAP reporter activity: 0.895
RAW-Dual [1]; [5]
  NF-kB SEAP reporter activity: 0.82
RAW-Dual [1]; [6]
  NF-kB SEAP reporter activity: 0.904

## Cl.NCc1c[nH]c(=S)n1C1CCc2c(F)cc(F)cc2C1 (configuration not stated)
RAW-Dual [2]; [7]
  NF-kB SEAP reporter activity: 1.12
RAW-Dual [2]; [8]
  NF-kB SEAP reporter activity: 0.889
